# Results published in the supplement of paper PMC3334620.
# The full ranking holds about 33,000 sequences; the median of “E-score (-0.5 to 0.5)” is about -0.016, and the highest 2% start at about 0.31. The list shows a part of the results.
# Target: Cst6 (UniProt P40535)
# Test: PBM E-score (8-mer binding enrichment) (E-score (-0.5 to 0.5)); higher = stronger / more preferred TF binding; most listed sequences are background and not binding sites
# Conditions: protein concentration: 200 nM; construct: GST-DNA-binding domain
# Method: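 Universal 'all 10-mer' protein binding microarrays (Agilent AMADID 015681) probed with GST-tagged S. cerevisiae TFs (full-length or DBD) made by in vitro transcription/translation (PURExpress), about 100-200 nM. Bound TF was detected with fluorescent anti-GST. Each ungapped 8-mer (which stands for itself and its reverse complement) is scored by the PBM enrichment score (E-score), a modified Wilcoxon-Mann-Whitney statistic from -0.5 to +0.5, computed with the Universal PBM Analysis Suite. Scale: above 0.35 generally sequence-specific binding.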
row,Sequence,PBM E-score
1,GACATTAA,0.146
2,CCCCACGA,-0.209
3,CATGAGGA,0.0552
4,AGCTCCTC,-0.0933
5,CCGTGCCC,-0.075
6,AAACGAGT,-0.0501
7,AACGATGC,-0.035
8,AGTTTCAA,-0.118
9,CTCAATGC,-0.0257
10,ATGTTGAA,0.104
11,ACATTCAG,-0.219
12,AGCCAGTA,-0.281
13,AAATAAAA,0.186
14,TAGATATA,0.106
15,GAGGAATC,-0.167
16,AATACAAC,0.164
17,AATAACCA,0.226
18,CTTACCAC,-0.141
19,ATGATTAC,0.253
20,ATATAAAC,0.295
21,CGCACGGC,0.375
22,AGTCGGCC,-0.198
23,GGGTTTAA,-0.0748
24,GTTGCGAA,0.119
25,TCGGGCAA,-0.192

row,Sequence,PBM E-score
1,AGACAGCG,-0.143
2,GTCGGTAA,-0.045
3,CCCTCCCA,-0.0423
4,AACAAGTA,-0.0246
5,AACCTCTG,-0.136
6,TGGCGCCA,0.034
7,ACTGGGTC,-0.286
8,GGAAAGAA,0.116
9,ATGGTATA,0.122
10,TGCGCCAA,-0.0304
11,CGGGGTCA,-0.164
12,CCTGGGAC,-0.245
13,AATTTACA,0.229
14,AGTATACG,0.0757
15,CCCCTTAC,-0.14
16,CAATAGCA,-0.216
17,ACTACGCC,-0.0733
18,ATAACATC,0.282
19,GCTTACGA,0.0634
20,CGTCTCAA,0.13
21,AAAGAAAA,0.16
22,GTAATAGA,0.0316
23,ATTCTAAC,0.0623
24,GTAAACAA,0.28
25,CGCCATCC,0.0971

row,Sequence,PBM E-score
1,ATGGGAAA,-0.125
2,CACTCCAA,-0.0548
3,CAAAAGTC,-0.0785
4,ATAGCTCC,-0.0824
5,GCTATACA,0.0758
6,ACCATAGT,-0.116
7,GTGTCTTA,0.122
8,AGTACGCG,0.105
9,GACTCGGC,-0.177
10,GCGTAATA,0.296
11,TATCCCCA,-0.123
12,GAATAGTC,-0.111
13,GTTCAATA,0.00065
14,AAGATCCA,-0.0616
15,CTTTCTTA,0.208
16,CTTCCGGA,-0.25
17,GACATTCC,-0.128
18,AGGCGCTA,0.0918
19,CCGCCCAC,-0.0152
20,CACTCATG,-0.017
21,ACGCACAG,0.101
22,CTTGCACC,-0.0331
23,CAAAACAA,0.11
24,AGTTCATC,0.05
25,AAGGATGT,-0.141

row,Sequence,PBM E-score
1,GGCGGGTA,-0.17
2,CACCGTTA,0.162
3,AGGCTAAA,-0.0332
4,CCGGCAAG,-0.104
5,GTCTATGA,0.26
6,AAATATTG,0.286
7,AAGGATCC,-0.197
8,AATGATTA,0.344
9,GGCGACAC,-0.0377
10,CGTCTCGA,0.143
11,CGAACAGA,0.00596
12,ACCGACAT,0.111
13,GTCGCGAA,-0.104
14,ACCAAACC,0.0174
15,TATCCGAA,0.0414
16,CCGGGTTC,-0.142
17,GAGAGCCA,-0.0157
18,CCAGGCTC,-0.28
19,GCCAGGTA,-0.139
20,AAGATCAC,0.145
21,AACGTTAC,0.137
22,AACTATAC,-0.0149
23,GCGATGCA,-0.255
24,GAAGATCA,0.0438
25,GGGTGACC,-0.0338

row,Sequence,PBM E-score
1,CCTGGGAG,-0.26
2,AAGGGCTA,-0.169
3,CGAGGATC,-0.0581
4,TCAGACAA,0.0498
5,CAGATAAA,0.051
6,GGGCGATA,-0.23
7,GTGCCCCA,-0.141
8,AATTTCTA,0.198
9,AAACCCGG,-0.209
10,ATTGGATG,0.193
11,AGGTCTTC,-0.231
12,GATCTTTA,0.227
13,GACCACCA,-0.112
14,AATGGAGT,-0.0477
15,ACCTAGCT,-0.227
16,AAAATCAT,0.254
17,ATGTCCTG,-0.00863
18,CGTGTACC,-0.0152
19,CACATACG,0.0445
20,CAGTTGGC,-0.175
21,ACGCGATA,0.0231
22,GGCCATTA,-0.0134
23,ATTCTGGA,0.122
24,CGAGGAAC,-0.0452
25,AGAAATGC,0.0927

row,Sequence,PBM E-score
1,ACTATTAA,0.237
2,AAGCAGCA,-0.247
3,ATTAGTCA,0.201
4,AATATCGG,0.0281
5,GTTGCCAA,-0.101
6,CGGTCTGA,-0.128
7,AATCGCAG,0.0466
8,ACTATACT,0.0328
9,TTCCCCAA,-0.12
10,CAAGTTAA,0.153
11,GCCATTTA,0.022
12,CAGCATCA,0.0951
13,TATTTTGA,0.0413
14,CAAAGGCA,0.0899
15,TCGTCCAA,0.023
16,ATGGGAAT,-0.107
17,GCATGCCA,-0.0954
18,CTGTTCAA,-0.0331
19,CACGCTTC,-0.182
20,CCCATTTC,-0.177
21,GTGCGCTA,-0.19
22,AAATAGCT,-0.00989
23,AAACGACT,-0.0754
24,CTATCATA,0.14
25,ATCTCTAG,-0.0621

row,Sequence,PBM E-score
1,ATACTTTA,0.172
2,CCGTCCCC,-0.289
3,CTGCATAC,0.00598
4,TAGACAAA,0.106
5,AATGTTCG,-0.0247
6,CCAGGCCA,-0.293
7,AACTCAAT,0.0395
8,AACAATGG,0.0543
9,GCGAATAC,0.043
10,CGGTACCC,-0.273
11,AACTGGCA,-0.0203
12,CCGCATGC,0.0138
13,CCCAGCAG,-0.203
14,CGTGTTAG,0.138
15,GCATGTTA,0.0834
16,GAAAGGTC,-0.196
17,ACTTGACG,0.237
18,ACCCTCTG,-0.156
19,CTTTGCGA,-0.0378
20,AAGGCCTA,-0.211
21,GAGAGGCC,-0.385
22,AATTGTGT,0.0931
23,GGTTGATA,-0.0494
24,CGCGCTTA,0.154
25,CATTTACA,0.218

row,Sequence,PBM E-score
1,CTAGTTTA,0.0239
2,AGGACGAG,-0.325
3,ACTCATAT,0.131
4,AAAGTGGA,0.0186
5,ATGAAATG,0.0988
6,GGCTGAAC,-0.141
7,GCGTCTTA,-0.118
8,CCGACACC,-0.303
9,AGGAAGTG,-0.122
10,GTACGTGA,0.108
11,ACGATGCC,0.00628
12,ATCAACAA,0.225
13,CTAAAGCC,-0.0993
14,ATAAGTTG,0.0246
15,ACGACGTA,0.3
16,ATACGGTG,0.104
17,AACTACCT,0.0258
18,CCGGTAAC,-0.0423
19,GCGCAACA,-0.0516
20,GCGGATAA,0.107
21,AACTCAGT,-0.0268
22,GACCAAAA,0.189
23,CCCGGGGC,-0.205
24,ATGTACAC,0.129
25,GAACCATC,-0.0588

row,Sequence,PBM E-score
1,CACGCGGA,0.192
2,CCCTGACG,0.0353
3,ATCTATAA,0.184
4,AAAGCATA,0.0739
5,GGGCTCCA,-0.307
6,CATATTCC,-0.184
7,CAGGTACA,-0.139
8,AACTACAC,0.16
9,CCGCCAAA,0.0155
10,CCACCCAG,-0.0877
11,TACACAAA,0.311
12,GCTCTTAA,0.0103
13,GGGGTAGA,-0.0523
14,CCTGTGAA,-0.00874
15,GTATGGAA,-0.0917
16,GATAGTCA,-0.0283
17,AATAGCTA,-0.0201
18,CTGACCAC,-0.0765
19,GCCAAGAC,-0.0294
